In the supplement of paper PMC11417369:
± gives the standard deviation of the averaged measurements. Some of the results follow.

system: PfAP2-I AP2 domain 3 (GST-tagged); assay: gcPBM binding intensity (ln(normalized median fluorescence intensity)); higher = stronger DNA binding
In short: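 In this array assay, P. falciparum DNA-binding domains with a GST tag, expressed in E. coli, were applied for 1 h to primer-extended double-stranded 36-bp intergenic genomic probes and negative controls on an Agilent 4 × 180k array. Bound protein was visualised with Alexa488 anti-GST antibody at 488 nm. Binding intensity is the highest Masliner-normalised natural-log median intensity across replicate spots of either probe orientation.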

| Sequence | gcPBM binding intensity (ln) |
| --- | --- |
| TTTTGGATGTATTATACATGCATATTATTATAATAT [TGCATGCA_site997] | 8.24 ± 0.68 |
| ATCTGAAAAATTAATAGTACAATTAATAATTAAACC [XGTACX_site8523] | 7.9 ± 0.48 |
| AAACAAAAAAGAAGCACACATATATATATATATATG [CACACA_site2456] | 8.44 ± 0.6 |
| TATACGCATATATACACACACATATATATATATATA [CACACA_site3416] | 9.43 ± 0.66 |
| AACAAACAAATAGTTTATTTTGATTTTTTTAAAAAT [CACACA_negctrl_site693] | 7.36 ± 0.65 |
| TGTTAATTTCATTTTCTACACACCTATCCTTTTTTT [CACACA_site8157] | 7.88 ± 0.66 |
| ACAAATAAATATTCGCGTACTTATATAATATTACGA [XGTACX_site6428] | 7.95 ± 0.18 |
| AAAAAAAATATCCGACGTACTATTTTCGTAGAAATA [XGTACX_site6292] | 7.53 ± 0.54 |
| TCATATGTGAAACACACACACACACCCAAAAAAACA [CACACA_site3247] | 8.06 ± 0.16 |
| TGTTTCTTATTTTTTTCACACACTAATCATTTCAAA [CACACA_site8695] | 8.16 ± 0.57 |
| ATTATGTTATTATTTTGTACACATAAATAATACGTT [XGTACX_site816] | 7.9 ± 0.52 |
| GAACAAAAATACTTATGTACACATTAGCAAGGAAAA [XGTACX_site5622] | 8.06 ± 0.73 |
| AAATTTTTTTTTGTCATATGATGTTTGAACCCAAAT [CACACA_negctrl_site1659] | 7.67 ± 0.49 |
| TCCGTATATTTATACGCATGCATTATGAACATTGTT [TGCATGCA_site613] | 7.89 ± 0.8 |
| AAAAAAAATAATTTGCGTACATAAAAATTTATAGGA [XGTACX_site3016] | 7.92 ± 0.42 |
| ATGTAGACTGAAACCACACACACATATATATATATA [CACACA_site606] | 9.36 ± 0.014 |
| GGATTACAAATAGGTTGTACGTTTTTTTTTTTTTCT [XGTACX_site3605] | 7.79 ± 0.69 |
| TTACATTGTAAAAAGTGTACATATAATTTAATTAAT [XGTACX_site1834] | 8.05 ± 0.49 |
| TCCACATTAATGTAATGTACAAAATTAGAAAATAAA [XGTACX_site6287] | 7.71 ± 0.34 |
| AATATAAATACTCCTACACACATATAAATATAAATA [CACACA_site7419] | 7.83 ± 0.38 |
| TTTTGATTAAGTGAATTTTTTTATTTATATAAATAT [TGCATGCA_negctrl_site479] | 7.54 ± 0.56 |
| CATACATACATATATACACACATATATAATAATATA [CACACA_site2678] | 8.13 ± 0.29 |
| TACGAATTAAAAAAGAGTACAAATAAAATATCTACA [XGTACX_site7412] | 7.53 ± 0.44 |
| TTTTAAACACCAATCAAAAAAATATAAATATAAATA [TGCATGCA_negctrl_site552] | 7.61 ± 0.54 |
